The other results are listed elsewhere or left out. At the low end of the ranking the order means little.

The experiment concerns the target T1, ETS1 (UniProt P14921).
T1 sequence: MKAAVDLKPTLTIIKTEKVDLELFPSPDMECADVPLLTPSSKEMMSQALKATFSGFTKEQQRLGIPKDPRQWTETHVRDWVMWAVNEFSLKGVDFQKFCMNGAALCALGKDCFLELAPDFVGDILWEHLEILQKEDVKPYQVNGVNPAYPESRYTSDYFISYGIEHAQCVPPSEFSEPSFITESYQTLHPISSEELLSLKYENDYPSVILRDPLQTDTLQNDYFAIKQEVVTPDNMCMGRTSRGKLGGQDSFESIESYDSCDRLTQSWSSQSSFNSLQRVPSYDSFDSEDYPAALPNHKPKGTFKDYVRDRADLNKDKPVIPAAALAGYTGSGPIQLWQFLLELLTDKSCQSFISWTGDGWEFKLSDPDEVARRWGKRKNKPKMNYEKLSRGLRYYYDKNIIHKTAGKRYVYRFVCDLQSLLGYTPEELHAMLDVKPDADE
Briefly: custom PBM. To be noted: custom protein-binding microarray; buffer, salt, pH and temperature not stated; high values mean tight binding; double strand, one strand shown.
For “GTGTATAGGTTCCCATCCAACACACGTGTTAAAATGGTCTTGATTCGCTTGACGCTGCTG”, the binding signal (log fluorescence intensity) is 8.15. The value for “TATAGGGAAGACGGTTGTGGTAGTTCCGGGTATTAAGTCTTGATTCGCTTGACGCTGCTG” was 8.48; that for “GATTACTTTCTGCCCTTATTCGCACGTGCCATAACAGTCTTGATTCGCTTGACGCTGCTG” was 8.18; that for “GGAAAAAGGCCCAGGGTAACACCGGAAGTGGGGTTAGTCTTGATTCGCTTGACGCTGCTG” was 12. For the sequence “TAAAGGGAAGACGGTTGTGGTAGTCCCGGGTATTAAGTCTTGATTCGCTTGACGCTGCTG”, the binding signal (log fluorescence intensity) was found to be 8.14. Regarding “GGAAAAAGGCCCAGGGGAACACCGGAAGTGGGCTTAGTCTTGATTCGCTTGACGCTGCTG”, the binding signal (log fluorescence intensity) worked out at 12.1. As to “GGAAAAAAGCCCAGGGTAACACCGGAAGTGGGCTTAGTCTTGATTCGCTTGACGCTGCTG”, the binding signal (log fluorescence intensity) worked out at 12.1. As for “CACATTTTTTACAGTAATGTAGCACGCGTAACTCCTGTCTTGATTCGCTTGACGCTGCTG”, the binding signal (log fluorescence intensity) came to 8.09. On to “GTGTATAGGATCCCATCCAAGACACGTGTTAAAATGGTCTTGATTCGCTTGACGCTGCTG”, for which the binding signal (log fluorescence intensity) worked out at 8.2. Consider “CACAATTTGTACAGTAATGTAGCACGCGTAACTCCTGTCTTGATTCGCTTGACGCTGCTG”, for which the binding signal (log fluorescence intensity) amounted to 8.19. Take “GTGTATAGGATCCCATCCAACACACGTGTTAAAGTGGTCTTGATTCGCTTGACGCTGCTG”: the binding signal (log fluorescence intensity) is 8.22.

As to “TAAAGGGAAGACGGTTGTGGTAGCTCCGGGTATTAAGTCTTGATTCGCTTGACGCTGCTG”, the binding signal (log fluorescence intensity) was 8.28. Regarding “TACTGACTTATATATGTGAATGCACATGAATAGACCGTCTTGATTCGCTTGACGCTGCTG”, the binding signal (log fluorescence intensity) stood at 8.27. For the sequence “CGGAAGTGTCGTATACGTCGGATATCCGGTTCTTCTGTCTTGATTCGCTTGACGCTGCTG”, the binding signal (log fluorescence intensity) stood at 11.6.

“GCTGCTGCGGTGCATACCCCACCGGATGTGACCTCGGTCTTGATTCGCTTGACGCTGCTG”: the binding signal (log fluorescence intensity) came to 9.97. The figure for “CTGGGACTTGACCCCACTCTGCCACGTGGGTCGTTTGTCTTGATTCGCTTGACGCTGCTG” is 8.14; for “CCGAAGTGTCGTAAACGTCGGATATCCGGTTCTTCTGTCTTGATTCGCTTGACGCTGCTG” it is 12.

For “CGGAAGTGTCGTAAACGTCGGATATCCGGTTCCTCTGTCTTGATTCGCTTGACGCTGCTG”, the binding signal (log fluorescence intensity) stood at 12. As for “TCTGGCTACCAGCTCCACCCACTTCAGGCCTTGTAGGTCTTGATTCGCTTGACGCTGCTG”, the binding signal (log fluorescence intensity) is 8.26. On to “CAGCATAGGACTTCTTCCCTGCAGCAATTGATAACCGTCTTGATTCGCTTGACGCTGCTG”, for which the binding signal (log fluorescence intensity) amounted to 8.25. With “GATTAATTTCTGCCCTTACTCGCACGTGCCATAACAGTCTTGATTCGCTTGACGCTGCTG”, the binding signal (log fluorescence intensity) amounted to 8.27. For “TAAAGGGAAGACGGTTGTGGTAGTTCCTGGTATTAAGTCTTGATTCGCTTGACGCTGCTG”, the binding signal (log fluorescence intensity) came out at 8.29. The figure for “GCTGCTGCGGTGCATCCCCCACCGGATGTGACCCCGGTCTTGATTCGCTTGACGCTGCTG” is 10.8. As for “TAAAGTGAAGACGGTTGTGGTAGTTCCGGGTATTAAGTCTTGATTCGCTTGACGCTGCTG”, the binding signal (log fluorescence intensity) was 8.37. Regarding “TGTCGGGTAAGGGAATGTAGATCACGTGAATGAAACGTCTTGATTCGCTTGACGCTGCTG”, the binding signal (log fluorescence intensity) was 8.41. The value for “CACAATTTTTACAGTAATGTAACACGCGTAACTCCTGTCTTGATTCGCTTGACGCTGCTG” was 8.37; that for “TGTCGGGTAAGGTAATGTAGATCACGTGAATGAAAAGTCTTGATTCGCTTGACGCTGCTG” was 8.26. Regarding “TGTCGGGTAAGGGAATGTAGATCACTTGAATGAAAAGTCTTGATTCGCTTGACGCTGCTG”, the binding signal (log fluorescence intensity) is 8.32. Regarding “CTGGGACTTGACCCACCTCTGCCACGTGGGTCGTTTGTCTTGATTCGCTTGACGCTGCTG”, the binding signal (log fluorescence intensity) is 8.09.

For “GATTAGTTTCTGCCCTTATTCGCACGTGCCATAACAGTCTTGATTCGCTTGACGCTGCTG”, the binding signal (log fluorescence intensity) was determined as 8.12.

Consider “CGGAAGTGTCGTAAACGTCGGATATCCGGTTCTTCAGTCTTGATTCGCTTGACGCTGCTG”, for which the binding signal (log fluorescence intensity) came to 12. The value for “TAAAAGGAAGACGGTTGTGGTAGTTCCGGGTATTAAGTCTTGATTCGCTTGACGCTGCTG” was 8.73; that for “CTGGGACTTGACCCAACTCTGCCACGAGGGTCGTTTGTCTTGATTCGCTTGACGCTGCTG” was 8.16. The value for “TAAAGGGAAGACGGTTGCGGTAGTTCCGGGTATTAAGTCTTGATTCGCTTGACGCTGCTG” was 8.58; that for “GCTGCTGCGGTGCATACCCCACCGGATCTGACCCCGGTCTTGATTCGCTTGACGCTGCTG” was 8.28. The value for “GGAAAAAGGCCCAGTGTAACACCGGAAGTGGGCTTAGTCTTGATTCGCTTGACGCTGCTG” was 12; that for “CGGCAGTGTCGTAAACGTCGGATATCCGGTTCTTCTGTCTTGATTCGCTTGACGCTGCTG” was 11.7.

For “TACTGACGTATATATGCGAATGCACATGAATAGACCGTCTTGATTCGCTTGACGCTGCTG”, the binding signal (log fluorescence intensity) was 8.24. The figure for “TAAAGGGAAGACGGTTGTGGTAGTTCCGGGTATTAAGTCTTGATTCGCTTGACGCTGCTG” is 8.52.

For the sequence “CTGGGACTCGACCCAACTCTGCCACGTGGGTCGTTTGTCTTGATTCGCTTGACGCTGCTG”, the binding signal (log fluorescence intensity) came to 8.18. For “TACTGACTTATATATGCGAATGCACATGAACAGACCGTCTTGATTCGCTTGACGCTGCTG”, the binding signal (log fluorescence intensity) amounted to 8.02. “GATTAATTTCTGCCCTTATTCGCACGTGTCATAACAGTCTTGATTCGCTTGACGCTGCTG”: the binding signal (log fluorescence intensity) turned out to be 8.12.

Regarding “GATTAATTTCTGCCCTTATTCGCACGTGCGATAACAGTCTTGATTCGCTTGACGCTGCTG”, the binding signal (log fluorescence intensity) is 8.09. The figure for “TACTGACTTATATATGCGAACGCACATGAATAGACCGTCTTGATTCGCTTGACGCTGCTG” is 8.19; for “CTGGGACTTGACCCAACTCTGACACGTGGGTCGTTTGTCTTGATTCGCTTGACGCTGCTG” it is 8.26; for “CAGCAGAGGACTTCTTCCCTGAAGCAATTGATAACCGTCTTGATTCGCTTGACGCTGCTG” it is 8.33.

As for “TAGAGGGAAGACGGTTGTGGTAGTTCCGGGTATTAAGTCTTGATTCGCTTGACGCTGCTG”, the binding signal (log fluorescence intensity) was determined as 8.62.

For the sequence “TGTCGGGTAAGGGAATGTGGATCACGTGAATGAAAAGTCTTGATTCGCTTGACGCTGCTG”, the binding signal (log fluorescence intensity) was found to be 8.13. Turning to “CTGGGACTTGCCCCAACTCTGCCACGTGGGTCGTTTGTCTTGATTCGCTTGACGCTGCTG”, the binding signal (log fluorescence intensity) stood at 8.29.

In the case of “GTGTATAGGATCCCTTCCAACACACGTGTTAAAATGGTCTTGATTCGCTTGACGCTGCTG”, the binding signal (log fluorescence intensity) was 8.2.

Turning to “GTGTGTAGGATCCCATCCAACACACGTGTTAAAATGGTCTTGATTCGCTTGACGCTGCTG”, the binding signal (log fluorescence intensity) stood at 8.23.

Consider “CTGCATAGGACTTCTTCCCTGAAGCAATTGATAACCGTCTTGATTCGCTTGACGCTGCTG”, for which the binding signal (log fluorescence intensity) is 8.29.

The values are drawn from paper PMC6602471.
